The values that follow come from the supplement of paper PMC10369915.

B1: PRKN_Y391 (peptide)
chain: TTTQAYRVDER
B2: PRKG1_Y247_YF (peptide)
chain: FENGEYIIRQG
B3: PROS1_Y266_C267S_YF (peptide)
chain: GGFTCYSDGKK
B4: PROS1_Y266_Y266C (peptide)
chain: GGYTCCCDGKK
B5: PRKRIP1_Y82_R87W (peptide)
chain: GEFHVYRHLRW
B6: PROM1_Y34_A31G (peptide)
chain: PKGWNYELPAT
B7: PRKRIP1_Y82 (peptide)
chain: GEFHVYRHLRR
B8: PRKCG_Y312_M317I (peptide)
chain: YPLELYERVRI
B9: PSEN1_Y256_A260V (peptide)
chain: AVISVYDLVVV
B10: PRPS1_Y146_V142L (peptide)
chain: PLDNLYAEPAV
B11: PROS1_Y266_Y266C_YF (peptide)
chain: GGFTCCCDGKK
B12: PROS1_Y259_YF (peptide)
chain: QLCVNYPGGFT
B13: PSEN1_Y315_Y315C (peptide)
chain: SKNSKCNAEST
B14: PRPH2_Y184_L185P (peptide)
chain: WISNRYPDFSS
B15: PROS1_Y259 (peptide)
chain: QLCVNYPGGYT
B16: PRKG1_Y247 (peptide)
chain: YENGEYIIRQG
B17: PRPS1_Y311_G306R (peptide)
chain: RESVSYLFSHV
B18: PSEN1_Y315 (peptide)
chain: SKNSKYNAEST
B19: PRKDC_Y682_I680M (peptide)
chain: AKKMKYFEGVS

Some of the results follow. Rule as the data show it: active = 3.2 or more and inactive = the rest. Only a few entries rise above the background.
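Also: displayed peptides selected on beads carrying the immobilized SH2 domain, with library peptides lacking any tyrosine serving as negative controls.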

For the first test, the target named is SHP2 C-SH2 domain E139D. Description: enrichment score (SH2-bound / input frequency) (ratio); bacterial display of known human phosphotyrosine sites (pTyr-Var adds point mutants) read by sequencing; higher = stronger binding; tyrosines were phosphorylated by kinases first. Conditions: peptide library: pTyr-Var.
For B1, the enrichment score was inactive: 0.543.

Turning to B2, the enrichment score is inactive: 1.18.

For B3, the enrichment score was inactive: 0.849.

B4: the enrichment score was inactive: 0.571.

Regarding B5, the enrichment score is inactive: 1.14.

Consider B6, for which the enrichment score is inactive: 1.1.

With B7, the enrichment score was inactive: 0.222.

For B8, the enrichment score is inactive: 0.833.

As to B9, the enrichment score was inactive: 2.11.

Consider B10, for which the enrichment score was inactive: 0.878.

With B11, the enrichment score is inactive: 1.04.

In the case of B12, the enrichment score is inactive: 0.883.

Consider B13, for which the enrichment score is inactive: 0.71.

For B14, the enrichment score is inactive: 1.44.

As to B15, the enrichment score was inactive: 0.996.

For B16, the enrichment score was inactive: 2.65.

With B17, the enrichment score was inactive: 1.23.

Consider B18, for which the enrichment score is inactive: 0.561.

For B19, the enrichment score is inactive: 0.944.

In another test the target is SHP2 C-SH2 domain wild-type. The description is as above. As to conditions: peptide library: pTyr-Var.
Regarding B1, the enrichment score was inactive: 0.614.

As to B2, the enrichment score was inactive: 0.829.

Consider B3, for which the enrichment score is inactive: 1.49.

For the molecule B4, the enrichment score is inactive: 0.926.

In the case of B5, the enrichment score is inactive: 1.17.

On to B6, for which the enrichment score is inactive: 0.912.

For the molecule B7, the enrichment score was inactive: 0.227.

As to B8, the enrichment score was inactive: 0.983.

As to B9, the enrichment score is inactive: 1.94.

As for B10, the enrichment score was inactive: 0.953.

Turning to B11, the enrichment score was inactive: 1.43.

In the case of B12, the enrichment score was inactive: 1.42.

On to B13, for which the enrichment score was inactive: 0.556.

Take B14: the enrichment score was inactive: 0.94.

With B15, the enrichment score was inactive: 1.09.

As for B16, the enrichment score was inactive: 2.39.

As to B17, the enrichment score was inactive: 1.55.

In the case of B18, the enrichment score was inactive: 0.591.

For B19, the enrichment score is inactive: 0.783.

In the next test the target is SHP2 N-SH2 domain L43F. The test is described as above. Conditions: peptide library: pTyr-Var.
Turning to B1, the enrichment score was inactive: 0.556.

On to B2, for which the enrichment score is inactive: 0.876.

Turning to B3, the enrichment score is inactive: 0.948.

For the molecule B4, the enrichment score is inactive: 0.599.

As for B5, the enrichment score is inactive: 1.29.

Take B6: the enrichment score is inactive: 1.06.

Take B7: the enrichment score was inactive: 0.218.

With B8, the enrichment score was inactive: 0.804.

In the case of B9, the enrichment score was inactive: 1.97.

Regarding B10, the enrichment score is inactive: 0.957.

B11: the enrichment score is inactive: 1.14.

For B12, the enrichment score is inactive: 1.17.

On to B13, for which the enrichment score was inactive: 0.561.

For the molecule B14, the enrichment score was inactive: 0.957.

As to B15, the enrichment score is inactive: 1.04.

Turning to B16, the enrichment score was inactive: 2.54.

In the case of B17, the enrichment score is inactive: 1.1.

Regarding B18, the enrichment score was inactive: 0.48.

B19: the enrichment score is inactive: 0.879.

Another test addresses SHP2 N-SH2 domain T42A. The description is as above. As to conditions: peptide library: pTyr-Var.
With B1, the enrichment score is inactive: 0.626.

As for B2, the enrichment score was inactive: 0.86.

Turning to B3, the enrichment score is inactive: 0.885.

For the molecule B4, the enrichment score was inactive: 0.619.

B5: the enrichment score is inactive: 1.15.

On to B6, for which the enrichment score was inactive: 0.613.

For B7, the enrichment score was inactive: 0.317.

B8: the enrichment score is inactive: 0.775.

Regarding B9, the enrichment score is inactive: 1.55.

Turning to B10, the enrichment score is inactive: 0.797.

For the molecule B11, the enrichment score was inactive: 0.948.

In the case of B12, the enrichment score is inactive: 0.689.

Take B13: the enrichment score was inactive: 0.637.

Regarding B14, the enrichment score is inactive: 1.14.

Turning to B15, the enrichment score was inactive: 0.721.

As for B16, the enrichment score is active: 3.22.

Consider B17, for which the enrichment score was inactive: 2.49.

Consider B18, for which the enrichment score is inactive: 0.487.

Turning to B19, the enrichment score is inactive: 0.642.

In another test the target is SHP2 N-SH2 domain T52S. Described as above. Conditions: peptide library: pTyr-Var.
Turning to B1, the enrichment score is inactive: 0.552.

With B2, the enrichment score is inactive: 0.965.

For the molecule B3, the enrichment score was inactive: 0.951.

On to B4, for which the enrichment score was inactive: 0.635.

Consider B5, for which the enrichment score was inactive: 1.3.

As to B6, the enrichment score was inactive: 0.736.

Regarding B7, the enrichment score was inactive: 0.235.

B8: the enrichment score is inactive: 0.849.

In the case of B9, the enrichment score is inactive: 1.96.

Consider B10, for which the enrichment score was inactive: 0.941.

For the molecule B11, the enrichment score was inactive: 0.813.

As for B12, the enrichment score is inactive: 0.932.

Regarding B13, the enrichment score is inactive: 0.614.

With B14, the enrichment score is inactive: 1.09.

On to B15, for which the enrichment score is inactive: 0.705.

As for B16, the enrichment score is inactive: 2.82.

Regarding B17, the enrichment score was inactive: 1.06.

As for B18, the enrichment score is inactive: 0.362.

For the molecule B19, the enrichment score was inactive: 0.523.

Another test addresses SHP2 N-SH2 domain wild-type. The test is described as above. As to conditions: peptide library: pTyr-Var.
In the case of B1, the enrichment score is inactive: 0.65.

For the molecule B2, the enrichment score was inactive: 0.917.

Turning to B3, the enrichment score is inactive: 1.33.

B4: the enrichment score is inactive: 1.12.

On to B5, for which the enrichment score is inactive: 1.12.

In the case of B6, the enrichment score is inactive: 0.987.

In the case of B7, the enrichment score is inactive: 0.175.

For B8, the enrichment score is inactive: 0.978.

Regarding B9, the enrichment score is inactive: 1.89.

For the molecule B10, the enrichment score was inactive: 0.67.

Regarding B11, the enrichment score is inactive: 1.31.

B12: the enrichment score was inactive: 1.36.

With B13, the enrichment score was inactive: 0.625.

In the case of B14, the enrichment score was inactive: 1.08.

In the case of B15, the enrichment score was inactive: 1.39.

As to B16, the enrichment score was inactive: 2.12.

Consider B17, for which the enrichment score was inactive: 1.25.

As for B18, the enrichment score is inactive: 0.608.

B19: the enrichment score was inactive: 0.704.
